Biological target: T1, SarZ (Staphylococcus epidermidis RP62A) (UniProt Q5HLK8)
T1 sequence: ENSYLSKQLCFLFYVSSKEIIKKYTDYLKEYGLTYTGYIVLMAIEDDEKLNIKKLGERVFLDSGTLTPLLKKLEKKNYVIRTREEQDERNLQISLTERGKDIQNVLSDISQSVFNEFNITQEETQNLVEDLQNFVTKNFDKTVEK
Assay: EMSA

Sequence	binding
TAAACTATTCTCTACTCCGCCCCTCCTGTTAGAGGGGTTTTTTACGTCATTGATTGTACGACGTTGAACATAGCTCAATCAATACTATTCAAAATTCAACTGTGTAAAATGCACTCTTAAAAATGAAGTAGAACTATAGTCATAACGGCAGAATTATAAATAGTATTAGTGAAAGTATTTCTACAACGTTATCAACTTTCATCACAAAAAGACATAAAGATAAAACTGGG (double strand) [psmε promoter, 230 bp]	binds
TTTCACCTACCTTTCGTTAGTTAGGTTGTAAAGCATATGCTAATCGAAAGTATTTCAATTTGCAATAGAATGTTGTTATACTGAAACAGTAATATTTGTAATTTTAACTTAATTTTTCTGTAATATATTTTTAGAAAATTGAATAAGGGGGAGATTTTAGAATTG (double strand) [ica operon promoter, 165 bp]	binds
TATAACTTCACTCCTTTCGAATTAAGGTAATGGATACGAATGAATTTAACATTCACTCGACTAGATTAAGCAAATTTTTCAACTATCTTTCAATCACATCTCTGTGATATGAGTCTATTAAAACATGATTTTTCCATTTAAAGATTAAAATTTCGTAAATAGCAATATTTAGTACTCAACTGT (double strand) [psmγ promoter, 183 bp]	no binding
CTTTTAGCAATAGGTACCTAATAAAAATTATTTATATTTTTCACTATAATAGAGGTTTTTATACATAAATGTTAATTTGATATAAAATCCTATATGTTTATATCAATAAAATAGAGTGCAATACAGTTGTGCATGCCTAACTGTTGTAAAACCTAAGAAAATTAACAGTTAGGAACTCTTAATTATTTAGTATGAAAAATGCAACAAATTGAGTCAAATTAACTTTATAGTAAAGGTAACAAAACGATAGAGATAACGAATCGCAATCGTATCCAA (double strand) [psmβ promoter, 276 bp]	binds
GTGCATAGTCCCTAAATTAAAATATCAATGTCTTAAGTGAATGATTCATGTTTTTCACTCAACAGTGAGTTATTCCTAAGTGTTATTTTGTCTTTATACTGTTTACATAAGCTTTACAAAAGGATCTTTGAGTAATTAAGCTTTCAATAATCATTATTATATGATTAATTGAGTCTTATTTTGAGAAGCGTAACCATTGACACTCTTGCTCATTTAAAATATATTAATAGTATTATTCGAAAAGGTAATAACTAAGTCTTGC (double strand) [psmα promoter, 262 bp]	binds

— publication PMC11612630
